The structures appear in SMILES notation. Hit rate of the full screen: of about 150,000 compounds, about 540 (0.36%) showed an effect of 50% or more. Some of the results follow.

The subject of this experiment is Plasmodium falciparum. The experiment in a line: Primary screen in NF54 nanoGlo assay, in single point, at 2uM, 72h; a lower Z score goes with more inhibition. It counts as functional, Erythrocyte. The settings on record: timepoint 72 hour.
Take `O=C(c1ccccc1F)N(Cc1nccn1Cc1ccc(Cl)cc1Cl)c1ccccc1`: the “% Inhibition” value is on record as -9% and the Z score is on record as 1.03.
For `COc1cc(NC(=O)N2CC(C)OC(c3ccc(F)cc3)C2)ncn1` (configuration not stated), in that order: -10% and 1.39.
For `CN(C(=O)C1CCN(c2nccs2)CC1)c1ccccc1`, in that order: -12% and 1.84.
As to `Cc1cc(C)cc(NC(=O)Cn2c(=O)ncc3c2cnn3[C@H]2CCS(=O)(=O)C2)c1`, the “% Inhibition” value is listed as -6% and the Z score turned out to be 0.65.
Taken in the same sequence, the figures for `Cc1ccc(-n2c3c(c(=O)[nH]c2=O)CN(Cc2ccccn2)CN3)cc1C` were -1% and 0.13.
With `CCOCc1nc2c(c(N[C@@H]3COC4(CCCC4)C3)n1)CCNCC2`, the “% Inhibition” value is reported as -8% and the Z score amounted to 1.24.
For `CNC(=NC(C)C1CCCO1)NCC(c1ccco1)N1CCCC1` (configuration not stated), in that order: -6% and 0.74.
Regarding `CCCc1cc(C(=O)N(CCc2ccccc2)Cc2ccco2)n(C)n1`, the “% Inhibition” value was found to be 1% and the Z score is reported as -0.18.
Taken in the same sequence, the figures for `C[C@H]1CN(c2ccc(F)cn2)CCN1c1ccncc1` were -18% and 2.09.
For `CCN1CCN(CCCN2C(=O)c3ccccc3C2=O)CC1`, in that order: -5% and 0.58.
Taken in the same sequence, the figures for `CCc1nc(CN(C)Cc2cc(C)on2)n[nH]1` were -8% and 1.66.
Regarding `C[C@H]1CCN(C(=O)CN2CCC(C(F)(F)F)CC2)[C@@H](C)C1`, the “% Inhibition” value was -1% and the Z score turned out to be 0.16.
Taken in the same sequence, the figures for `Cc1cccc(OCC(=O)Nc2ccc(NC(=O)COc3cccc(C)c3)c(Cl)c2)c1` were -3% and 0.4.
On to `COc1cc(CN2CCC3(CCC(=O)N3OCc3ccccc3F)CC2)ccc1OCc1ccccc1`, for which the “% Inhibition” value was -2% and the Z score is recorded as 0.28.
For `CCc1noc(-c2cnn3c2CCCC3)n1`, in that order: -12% and 1.18.
Taken in the same sequence, the figures for `CC(=O)N1CCc2cc(S(=O)(=O)[C@@H](C)CC(=O)N3CCN(c4ccccc4F)CC3)ccc21` were -11% and 1.71.
For `CC(C)(C)c1nc(N2CCC[C@H](NS(C)(=O)=O)C2)no1`, in that order: 1% and -0.05.
In the case of `c1ccc(CO[C@H]2COCCN(C3CCOCC3)C2)cc1`, the “% Inhibition” value was -7% and the Z score was 1.01.
For `Cc1cnc(N(C)Cc2nccs2)nc1N(C)Cc1nccs1`, in that order: -7% and 0.94.
Taken in the same sequence, the figures for `CCc1cc(C(=O)NCc2nc(CN3CCCCC3)no2)sc1C` were -6% and 0.82.
Regarding `COc1ccc(-c2nc(C3(S(C)(=O)=O)CCCC3)no2)cn1`, the “% Inhibition” value was -9% and the Z score was determined as 1.44.
For the molecule `Cc1ccccc1C(=O)N1[C@H](C(=O)NCc2ccccn2)COC12CCN(C(=O)C(C)(C)C)CC2`, the “% Inhibition” value came to 5% and the Z score is listed as -0.45.
For `O=C(OCCNc1cccnn1)c1cscn1`, in that order: 1% and -0.11.
As to `CC[C@H](C)[C@H](N)C(=O)NC[C@@H]1CCO[C@H]1c1ccc(F)cc1`, the “% Inhibition” value turned out to be 5% and the Z score is -0.56.
Taken in the same sequence, the figures for `CN1CCC[C@H](CCc2ncnn2-c2cccc(C(F)(F)F)c2)C1` were -11% and 2.11.
Taken in the same sequence, the figures for `Cc1cc(N)n(CC(=O)N(C)[C@@H](C)c2ccon2)n1` were -6% and 1.27.
In the case of `CCC(=O)Nc1ccc(C)cc1-c1nc2ccccc2n(CC(=O)Nc2ccc(NC(C)=O)cc2)c1=O`, the “% Inhibition” value is 8% and the Z score was -1.62.
For `OC1=Nc2c(ncn2-c2cccc(C(F)(F)F)c2)[C@@H](c2cccnc2)C1`, in that order: 12% and -1.53.
For `O=C(NC1CC1)[C@@H]1CCCN1S(=O)(=O)c1ccc(F)c(Cl)c1`, in that order: -3% and 0.37.
Taken in the same sequence, the figures for `CN1CCC[C@H](NC(=O)Nc2nnc(CCC(=O)c3ccccc3)s2)C1` were 2% and -0.32.
Take `C[C@@](CO)(NC(=O)Nc1cc(-c2ccco2)ccc1F)C1CC1`: the “% Inhibition” value was determined as 28% and the Z score is reported as -4.09.
As for `Cn1nccc1-c1csc(CN2C(=O)CCC2=O)n1`, the “% Inhibition” value is -10% and the Z score turned out to be 1.11.
For `COc1ccc2c(c1NC(=O)N1CCCC1C1CCCO1)CCC2` (configuration not stated), the “% Inhibition” value is reported as 7% and the Z score is given as -1.03.
In the case of `COc1cccc(-c2ccnc3c(C(=O)NCc4ccncc4)cnn23)c1`, the “% Inhibition” value is -9% and the Z score was found to be 1.31.
Taken in the same sequence, the figures for `O=C(NC[C@H]1COc2ccccc2O1)c1cccc(CN2CCS(=O)(=O)CC2)c1` were -2% and 0.26.
`CC(=O)N1CCCN(C(=O)Cc2c(C)noc2C)CC1`: the “% Inhibition” value is 5% and the Z score is -0.84.
Taken in the same sequence, the figures for `CC(C)(C)OC(=O)NC[C@@H]1CCCN(CCO)[C@@H]1C(F)(F)F` were -14% and 1.35.
For `C[C@H]1CN(Cc2ccc(C#N)cc2)CCN1CC(=O)Nc1cc(Cl)ccc1-n1cncn1`, in that order: 0% and 0.02.
For `COc1ccc(N2CCN(C(=O)NCCn3cncn3)[C@@H](C)C2=O)cc1`, in that order: 0% and 0.06.
For `COc1cnc(C(=O)N2CCC(c3ccccc3)CC2)cc1O`, the “% Inhibition” value is -6% and the Z score is 0.9.
For `Cc1ccc(-c2n[nH]c(NC(=O)CCc3ncccn3)c2C)o1`, in that order: 3% and -0.53.
`CC1=C(C#Cc2ccccc2)c2ccccc2O[C@]1(NCc1ccccc1)c1ccccc1`: the “% Inhibition” value is -17% and the Z score was 1.83.
For `C[C@H](N(C)C(=O)c1ccsc1)C(C)(C)C`, in that order: -10% and 1.09.
For `O=C(COc1ccc2c(c1)OCO2)Nc1ccccn1`, in that order: -5% and 1.03.
For `COC(=O)NC[C@@H]1C[C@H](F)CN1C(=O)c1scc2c1CCCC2`, in that order: -14% and 1.8.
With `FC(F)(F)c1ccc(CN(CCN2CCCC2)C2CCOCC2)cc1`, the “% Inhibition” value turned out to be 1% and the Z score was -0.2.
As for `O=S(=O)(NCC1(Cn2ccnc2)CC1)N1CCCC1`, the “% Inhibition” value was -7% and the Z score is reported as 1.37.
Taken in the same sequence, the figures for `CCn1nccc1C(=O)Nc1ccc(-c2nc3ccccc3s2)cn1` were -14% and 2.04.
For `CN(CCN1CCOC1=O)C(=O)C1CC1C1CCCCC1` (configuration not stated), in that order: -10% and 1.58.
In the case of `COc1cc(C(=O)NC2CCCCCC2)ccc1OC1CCN(C)CC1`, the “% Inhibition” value is recorded as -13% and the Z score amounted to 1.85.
As to `N#Cc1c[nH]c(C(=O)N2CC[C@H](N3CCCCC3)C2)c1`, the “% Inhibition” value was -8% and the Z score is 1.21.
For `Cc1cccc(CN(Cc2ccccc2)C(=O)c2ccc(C)n2C)n1`, in that order: 1% and -0.17.
For `Cc1noc(C2CC2)c1NS(=O)(=O)c1ccc(CC(F)(F)F)cc1`, the “% Inhibition” value stood at 7% and the Z score is listed as -0.84.
Taken in the same sequence, the figures for `CC1=NO[C@](C)(c2nc(C3CC3)no2)C1` were -8% and 1.38.
Taken in the same sequence, the figures for `O=C(Nc1ccnnc1)c1ccoc1C1CC1` were -2% and 0.4.
Taken in the same sequence, the figures for `Cc1nn(C)cc1COc1ccccc1N` were -11% and 1.24.
Turning to `CC(=O)c1cccc(NC(=O)CN2CCN(c3cccc(Cl)c3)C2=O)c1`, the “% Inhibition” value is -7% and the Z score worked out at 0.8.
For `Cc1ncoc1C(=O)NCCCc1scnc1C`, in that order: -11% and 1.94.
Taken in the same sequence, the figures for `O=C(CCCOc1ccc2c(c1)OCO2)NCCCn1ccc2cccnc21` were -12% and 1.87.
Taken in the same sequence, the figures for `CN1CCN(C[C@@]2(Cc3ccccc3)CCOC2)CC1` were -3% and 0.56.
Consider `O=S(=O)(NC1CCCCC1N1CCN(c2ccccc2F)CC1)c1ccccc1` (configuration not stated), for which the “% Inhibition” value is reported as -8% and the Z score was found to be 0.98.
For `Cn1cccc1C(=O)NCc1ccc(OCC(F)(F)F)nn1`, in that order: -7% and 1.27.
Taken in the same sequence, the figures for `CC1COCC1NC(=O)C1CCC2CCCCC2C1` (configuration not stated) were -19% and 3.54.
Taken in the same sequence, the figures for `CC(C)N1CN=C(NS(C)(=O)=O)NC1` were 9% and -1.43.
Regarding `CC(C)N(CC(C)(C)O)C(=O)N[C@@H](C)c1cc(F)c(F)c(F)c1`, the “% Inhibition” value is -3% and the Z score was 0.29.
For `Cc1ccc(NC(=O)O[C@@H]2CC[C@]3(C)C(CC[C@@H](O)[C@H]3CC(=O)N3CCCC3)[C@]2(C)CO)cc1` (some centres not stated), in that order: -2% and 0.36.
Taken in the same sequence, the figures for `O=C(Nc1nc(C(=O)N2CCc3ccccc32)co1)c1cnccn1` were -2% and 0.27.
`Cc1ccccc1OCCNC(=O)NCc1ccoc1`: the “% Inhibition” value is recorded as 5% and the Z score was -0.8.
Taken in the same sequence, the figures for `NC(=O)c1csc(CN[C@H](c2ccccn2)C2CCCC2)c1` were -7% and 0.78.
For `CCN(CC)CCCC(C)NC(=O)CC(CCc1ccccc1)c1cn(Cc2ccc(C)cc2)c2ccccc12` (configuration not stated), in that order: -9% and 1.18.
Taken in the same sequence, the figures for `OCC(C1CC1)C(NCc1cccc2c1OCO2)C1CC1` (configuration not stated) were -9% and 1.21.
As to `N#Cc1c(F)cccc1NCc1nnc2n1CCC2`, the “% Inhibition” value is on record as -1% and the Z score came to 0.1.
For `Cc1ccc(NC(=O)c2nc(CCc3ccccc3)n(-c3ccccc3C)n2)cc1C`, in that order: -5% and 0.89.
For `Fc1ccc2c(c1)-c1nc(-c3ccc(Cl)cc3)cc(-c3ccccc3)c1CO2`, in that order: -9% and 0.98.
Consider `Cc1cc(-c2ccc(S(=O)(=O)Nc3cccc(-c4ccno4)c3)cc2)on1`, for which the “% Inhibition” value turned out to be 2% and the Z score was -0.35.
On to `CCC(=O)N1CCC[C@@](NCc2cccs2)(c2nnnn2C2CCCC2)C1`, for which the “% Inhibition” value came to 4% and the Z score is reported as -0.52.
For `O=C(Nc1nc2c(s1)CCCC2)C1=COCCO1`, in that order: -13% and 2.27.
For `CCC(C)C(NS(=O)(=O)c1ccc(C)cc1Cl)C(=O)NCCN1CCOCC1` (configuration not stated), in that order: -4% and 0.69.
Regarding `O=C(C[C@@H]1C[C@@H]2C=C[C@H]1C2)NCc1cccnc1-n1cnc2ccccc21`, the “% Inhibition” value was -5% and the Z score was found to be 1.06.
As for `COc1ccc(NC(=O)Cc2n[nH]c(=O)c3cc(-c4ccc(F)cc4)nn23)cc1Cl`, the “% Inhibition” value was -11% and the Z score came to 1.48.
Taken in the same sequence, the figures for `CCn1cc(CN(C)Cc2cc(C(C)C)on2)cn1` were 11% and -1.43.
Taken in the same sequence, the figures for `CCC1CCCCC1NCC1CCS(=O)(=O)CC1` (configuration not stated) were -5% and 0.67.
Taken in the same sequence, the figures for `CCn1ncnc1-c1c(-c2ccccc2)ncn1C[C@H](C)Oc1cccnc1` were -7% and 1.41.
As for `COc1cc([C@H]2CC(=O)Nc3c2cnn3C)ccc1OCCc1ccccc1`, the “% Inhibition” value is given as -17% and the Z score is on record as 2.58.
Taken in the same sequence, the figures for `O=C(NCCCCNC(=O)c1cccnc1)c1cccnc1` were 28% and -3.22.
Taken in the same sequence, the figures for `COC(=O)c1cn(CN2CCC[C@H](C(F)(F)F)C2)nn1` were -8% and 1.06.
